# Among all 360,000 compounds or so, about 7,500 (2.1%) were called active. The shares of active, inactive and inconclusive entries below differ from those in the screen. The call rests on the fitted dose curve; in most records, active means well fitted cell-killing curve with a large enough effect; inconclusive means small, poorly fitted or top-dose-only effect, or effect the other way, or another doubt; inactive means no such curve, though single readings can be large or run the other way. No potency is given beside an inconclusive call; the fits are too rough.
# Assay: qHTS for induction of synthetic lethality in tumor cells producing 2HG: qHTS for the HT-1080-IDH1KD cell line;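 on activity, negative = toxicity: 0% = DMSO wells and -100% = cell-free medium wells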
# Settings: HT-1080 IDH1 knockdown viability, ATP luminescence, 48 h; activity, negative = toxicity: at 46.1 µM (top of the series) unless noted
# In short: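 Cytotoxicity counter-line: IDH1KD HT-1080, 48 h, CellTiter-Glo. Curves classed by r2, magnitude and activity.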
# Potency means the concentration at half of the fitted maximal effect; tags describe the fitted curve by direction and shape.
Structure (SMILES),Potency,"activity, negative = toxicity"
CCCCC(=O)NNC(=S)NC(=O)c1ccc(C)cc1,"inconclusive [cytotoxic, partial curve]",–
N#C/C(=C\c1ccc([N+](=O)[O-])o1)c1nc2ccccc2[nH]1,active: 5.8 µM,–
Cc1cc(C)n2nc(C(=O)N/N=C/c3c4ccccc4cc4ccccc34)nc2n1,"inconclusive [cytotoxic, single point]",–
COc1ccc(NC(=O)c2cnc(SC)nc2)cc1,"inconclusive [cytotoxic, partial curve]",–
C[C@@H]1CN([C@@H](C)CO)S(=O)(=O)c2ccc(Br)cc2O[C@H]1CN(C)Cc1ccccc1F,"inconclusive [cytotoxic, single point]",–
O=c1c(Cl)c(N/N=C/c2ccc(Br)cc2)cnn1-c1ccccc1,"inconclusive [cytotoxic, single point]",–
C=CC[C@H](CC(=O)N(CCO)Cc1ccccc1)C(=O)N[C@H](COC(=O)[C@@H](CC=C)CC(=O)OC(C)(C)C)Cc1c[nH]c2ccccc12,"inconclusive [cytotoxic, single point]",–
N#C/C(=C\c1cn(CC(=O)N2CCCC2)c2ccccc12)C(=O)NCc1ccc2c(c1)OCO2,–,inactive: 0.686%
COC(=O)[C@@]12C[C@@H](CC(=O)NCCCCc3ccccc3)C(=O)N(Cc3ccc4c(c3)OCO4)C1=CCC(C)(C)C2,"inconclusive [cytotoxic, single point]",–
CC(Sc1n[nH]c(-c2ccccc2)n1)C(=O)c1c(N)n(C)c(=O)n(C)c1=O (centres undefined),–,inactive: 10.3%
C=CCn1cc(CN2CCC(C(=O)Nc3cccc(-c4cccc(Cl)c4)c3)CC2)c(C)n1,"inconclusive [cytotoxic, single point]",–
Cc1ccc(NC(=O)CN(C)C(=O)COC(=O)COc2cc(C)cc(C)c2)cc1,–,inactive: 9.78%
Cc1c(NC(=O)Nc2ccccc2Cl)sc(=S)n1C,"inconclusive [cytotoxic, single point]",–
C=C1CCc2c([nH]c3ccc(OCC(C)C)cc23)C1=O,active: 13 µM,–
COc1ccc(C2=Nn3c([n+](C)c4ccccc43)SC2)cc1,"inconclusive [cytotoxic, partial curve]",–
COc1cc(OC)cc(C(=O)Nc2ccc(Cn3ccnc3)cc2)c1,"inconclusive [cytotoxic, single point]",–
C[C@@H]1CCCCO[C@@H](CN(C)CC2CCCCC2)[C@@H](C)CN([C@H](C)CO)C(=O)c2cc(NS(=O)(=O)c3ccc(Cl)cc3)ccc2O1,"inconclusive [cytotoxic, single point]",–
O=C(Nc1ccc([N+](=O)[O-])cc1)N1CCN(C(=O)C2CCCO2)CC1 (centres undefined),–,inactive: -1.73%
Cc1ccc(-c2nnc(-c3ccccc3Br)o2)cc1,–,inactive: -0.143%
O=C(NNC(=O)c1cc(Cl)ccc1O)c1ccc(NS(=O)(=O)c2cccs2)cc1,"inconclusive [cytotoxic, single point]",–
N#Cc1c(NC(=O)c2ccc([N+](=O)[O-])o2)sc2c1CCC2,"inconclusive [cytotoxic, single point]",–
CCOC(=O)C1(S(=O)(=O)c2ccc(Cl)cc2)CCN(Cc2ccc(C)cc2)CC1,"inconclusive [cytotoxic, single point]",–

Structure (SMILES),Potency,"activity, negative = toxicity"
C[C@H](c1ccccc1)N1C[C@@H](COCc2ccccc2)Oc2cc(N3CC[C@H](O)C3)ccc2S1(=O)=O,"inconclusive [cytotoxic, partial curve]",–
N#CC1=C(Nc2ccccc2)SC=C(c2ccccc2)N=C1N1CCOCC1,–,inactive: 0.243%
COc1ccc(NC(=O)CCS(=O)(=O)c2ccccc2Cl)cc1S(=O)(=O)Nc1ccc(Cl)cc1,"inconclusive [cytotoxic, partial curve]",–
O=C1CCCN1c1ccc(S(=O)(=O)Nc2ccc3c(c2)OCCO3)cc1,"inconclusive [cytotoxic, single point]",–
Cc1ccc(C(=O)NNc2c3ccccc3nc3ccccc23)cc1,"inconclusive [cytotoxic, partial curve]",–
Cc1ccc(S(=O)(=O)N(CC(=O)NCCC2=CCCCC2)Cc2ccccc2)cc1,"inconclusive [cytotoxic, single point]",–
O=C(Cc1csc(Nc2nc(=S)[nH]c3ccccc23)n1)NCCCN1CCN(c2ccccc2F)CC1,active: 20.6 µM,–
Cc1ccc(Cl)cc1NC(=O)C1CCCN1S(=O)(=O)c1ccc(-c2ccc(=O)[nH]n2)s1 (centres undefined),"inconclusive [cytotoxic, single point]",–
CCc1nnc(NC(=O)c2sc3nc4c(cc3c2N)CCCCC4)s1,–,inactive: -15%
COc1ccc(Br)cc1CN1CCN(Cc2c[nH]c3ccccc23)CC1,active: 20.6 µM,–
CN1C(=O)CSC1=Nc1cccc(Cl)c1,–,inactive: 8.97%
O=C1CC(NS(=O)(=O)c2cccs2)CN1c1ccccc1 (centres undefined),–,inactive: 6.54%
O=C(Nc1ccc2c(c1)OCO2)c1cnn2c1NC(c1ccco1)CC2C(F)(F)F (centres undefined),"inconclusive [cytotoxic, single point]",–
Nc1ncnc2c1nc(-c1ccccc1)n2C1OC(CO)C(O)C1O (centres undefined),"inconclusive [cytotoxic, single point]",–
Cc1cccc2sc(N(CCN(C)C)C(=O)/C=C/c3cccs3)nc12,"inconclusive [cytotoxic, single point]",–
S=c1[nH]nc(Cc2ccc(Br)cc2)n1/N=C/c1ccc(Cl)cc1,–,inactive: -25.6%
COCCn1nnnc1C(c1ccccc1)N1CCN(Cc2ccc3c(c2)OCO3)CC1 (centres undefined),–,inactive: 4.03%
S=c1[nH]nc(-c2ccccc2)n1/N=C/c1cccs1,"inconclusive [cytotoxic, single point]",–
CCCCNc1cc(C)nc(NCc2ccccc2)n1,active: 23.1 µM,–
Cc1cc(=O)oc2c(CN(C)Cc3ccccc3)c(O)ccc12,–,inactive: 15.7%
CCN(Cc1ccccc1)c1ccc(/C=N/N=C(N)N)cc1,"inconclusive [cytotoxic, single point]",–
Cc1ccc(S(=O)(=O)N(C)CC(=O)Nc2cccnc2)cc1,–,inactive: 11.3%
